{
  "source": "PubChem BioAssay AID504333",
  "about": "(National Center for Advancing Translational Sciences (NCATS), 2011)",
  "note": "The whole screen tested about 360,000 compounds, of which about 16,000 (4.4%) were called active. Inconclusive results, whose numbers are uncertain, are shown with a selection of clear calls. Calls come from the whole dose curve; as a rule, active = well fitted inhibition curve with a large enough effect; inconclusive = small, poorly fitted or top-dose-only effect; inactive = no such curve, though single readings can be large or run the other way. Potencies beside an inconclusive call are fits to weak or partial responses and may not hold up. % is set by controls: 0 for no effect and ±100 for the full control effect; potency is the fitted concentration of half-maximal effect; tags give direction and shape of the fitted curve.",
  "data": [
    {"target": "Bromodomain adjacent to zinc finger domain protein 2B (Homo sapiens) (UniProt Q9UIF8)", "sequence (Q9UIF8 whole entry, looked up, the tested form may be a part)": "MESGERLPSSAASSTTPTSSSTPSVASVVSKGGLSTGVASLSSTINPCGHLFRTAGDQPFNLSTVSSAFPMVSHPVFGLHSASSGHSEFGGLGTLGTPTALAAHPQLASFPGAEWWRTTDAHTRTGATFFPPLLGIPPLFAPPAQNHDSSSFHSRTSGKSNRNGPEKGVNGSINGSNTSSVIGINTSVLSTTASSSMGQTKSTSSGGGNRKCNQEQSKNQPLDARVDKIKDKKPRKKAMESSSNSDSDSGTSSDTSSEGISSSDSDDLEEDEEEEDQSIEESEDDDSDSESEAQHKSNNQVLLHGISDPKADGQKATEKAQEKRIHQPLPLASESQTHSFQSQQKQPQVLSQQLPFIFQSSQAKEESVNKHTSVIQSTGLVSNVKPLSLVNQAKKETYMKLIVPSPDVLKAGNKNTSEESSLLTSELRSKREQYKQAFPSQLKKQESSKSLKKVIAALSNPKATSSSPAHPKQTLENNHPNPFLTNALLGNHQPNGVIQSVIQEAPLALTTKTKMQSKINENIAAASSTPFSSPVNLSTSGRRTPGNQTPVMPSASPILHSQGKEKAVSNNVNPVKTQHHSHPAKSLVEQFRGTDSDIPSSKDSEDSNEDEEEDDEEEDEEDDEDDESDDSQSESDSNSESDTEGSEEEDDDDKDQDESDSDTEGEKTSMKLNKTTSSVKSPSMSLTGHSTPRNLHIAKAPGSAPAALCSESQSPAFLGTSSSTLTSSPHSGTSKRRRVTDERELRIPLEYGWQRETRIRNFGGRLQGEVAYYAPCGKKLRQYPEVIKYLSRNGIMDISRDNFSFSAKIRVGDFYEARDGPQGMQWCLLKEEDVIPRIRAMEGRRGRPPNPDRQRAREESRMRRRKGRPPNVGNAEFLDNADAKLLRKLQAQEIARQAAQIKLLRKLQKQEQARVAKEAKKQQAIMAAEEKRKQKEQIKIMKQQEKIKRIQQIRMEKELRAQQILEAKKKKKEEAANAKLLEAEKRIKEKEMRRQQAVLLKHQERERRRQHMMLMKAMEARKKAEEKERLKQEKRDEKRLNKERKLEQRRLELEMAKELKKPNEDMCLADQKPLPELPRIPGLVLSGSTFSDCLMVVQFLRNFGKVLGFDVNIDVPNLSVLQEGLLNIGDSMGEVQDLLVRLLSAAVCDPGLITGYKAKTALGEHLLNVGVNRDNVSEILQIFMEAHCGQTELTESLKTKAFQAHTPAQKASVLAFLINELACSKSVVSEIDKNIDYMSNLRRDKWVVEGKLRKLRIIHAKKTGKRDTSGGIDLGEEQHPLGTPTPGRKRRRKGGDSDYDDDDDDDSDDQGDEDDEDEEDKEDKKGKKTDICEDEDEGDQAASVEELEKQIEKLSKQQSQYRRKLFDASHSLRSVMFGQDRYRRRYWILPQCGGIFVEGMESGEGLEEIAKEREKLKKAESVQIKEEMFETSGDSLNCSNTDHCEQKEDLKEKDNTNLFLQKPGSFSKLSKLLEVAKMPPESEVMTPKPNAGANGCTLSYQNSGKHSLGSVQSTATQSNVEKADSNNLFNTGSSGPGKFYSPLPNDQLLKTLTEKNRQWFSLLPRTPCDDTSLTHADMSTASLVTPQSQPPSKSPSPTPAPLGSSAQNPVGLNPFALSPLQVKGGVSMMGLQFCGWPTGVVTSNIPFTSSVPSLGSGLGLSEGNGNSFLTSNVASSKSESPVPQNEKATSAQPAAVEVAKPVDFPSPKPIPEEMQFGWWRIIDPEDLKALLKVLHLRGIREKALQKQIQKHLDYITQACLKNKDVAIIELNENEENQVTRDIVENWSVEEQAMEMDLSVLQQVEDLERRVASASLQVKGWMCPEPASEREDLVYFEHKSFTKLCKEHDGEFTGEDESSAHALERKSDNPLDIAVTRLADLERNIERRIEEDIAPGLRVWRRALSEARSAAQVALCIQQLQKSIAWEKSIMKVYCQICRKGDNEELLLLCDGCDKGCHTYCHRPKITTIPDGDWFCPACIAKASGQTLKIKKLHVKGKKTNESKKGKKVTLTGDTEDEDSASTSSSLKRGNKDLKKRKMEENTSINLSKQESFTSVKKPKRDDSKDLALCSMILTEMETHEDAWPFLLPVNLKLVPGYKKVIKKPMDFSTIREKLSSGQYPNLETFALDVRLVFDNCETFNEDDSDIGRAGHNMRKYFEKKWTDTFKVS", "assay": "qHTS Assay for Inhibitors of BAZ2B; note: nearly all actives have a fitted effect of over 60% in size", "conditions": "AlphaScreen BAZ2B-H3K14Ac peptide displacement; activity change, negative = inhibition: at 114 µM (top of the series) unless noted", "summary_of_the_method": "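In this displacement format the biotinylated H3(5-23) peptide acetylated at Lys14 serves as ligand at 50 nM, with BAZ2B at 50 nM in PBS pH 7.4 containing 0.01% Tween-20. Donor and acceptor beads are 10 ug/mL final.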", "values": [
      {"smiles": "COC1CCN(Cc2cn(Cc3ccccc3)nc2-c2cc3ccccc3o2)CC1", "Potency": "inconclusive: 28.2 µM [inhibitor, full curve, poor fit]"},
      {"smiles": "COc1ccc(CNC(=O)c2ccc(NC(=O)N3CCCCc4ccccc43)cc2)c(OC)c1", "activity change, negative = inhibition": "inactive: -22.7%"},
      {"smiles": "CCOc1ccc(NC(=S)NCCCc2ccccc2)cc1", "Potency": "inconclusive: 44.7 µM [inhibitor, partial curve]"},
      {"smiles": "COc1ccc(CCNc2oc(COc3ccc(F)cc3)nc2C#N)cc1", "Potency": "inconclusive: 35.5 µM [inhibitor, full curve]"},
      {"smiles": "COc1ccc(/C(=C/Nc2cccc(Br)c2)C(C)=O)cc1OC", "Potency": "inconclusive: 79.4 µM [inhibitor, partial curve]"},
      {"smiles": "O=C(Nc1nc2ccccc2n1CCN1CCCCC1)C1CCCCC1", "Potency": "inconclusive: 50.1 µM [inhibitor, partial curve]"},
      {"smiles": "NC(=O)COC(=O)/C=C/c1ccccc1[N+](=O)[O-]", "activity change, negative = inhibition": "inactive: -28.8%"},
      {"smiles": "Cc1ccc2cccc(NC(=S)NC(=O)c3ccccc3)c2n1", "Potency": "inconclusive: 35.5 µM [inhibitor, full curve, poor fit]"},
      {"smiles": "C/C(=N\\NC(=O)c1ccc(N)cc1)C1CC1", "activity change, negative = inhibition": "inactive: 2.02%"},
      {"smiles": "Cc1ccc(NC(=O)C2CCCN2S(=O)(=O)c2cccc3nsnc23)c(Br)c1", "note": "(stereo not drawn)", "Potency": "inconclusive: 31.6 µM [inhibitor, partial curve]"},
      {"smiles": "Cc1c(NC(=O)COC(=O)/C=C/c2ccccc2Br)c(=O)n(-c2ccccc2)n1C", "activity change, negative = inhibition": "inactive: -16.9%"},
      {"smiles": "COc1cc(NS(=O)(=O)c2ccc(NS(=O)(=O)c3ccccc3)cc2)nc(OC)n1", "Potency": "inconclusive: 89.1 µM [inhibitor, single point]"},
      {"smiles": "Cc1ccc(CN2CCc3nc(N4CCN(c5ccccc5F)CC4)ncc3C2)s1", "activity change, negative = inhibition": "inactive: -28.5%"},
      {"smiles": "CCOc1ccc(N(CC(=O)Nc2ccc(C)c(C)c2)S(C)(=O)=O)cc1", "Potency": "inconclusive: 89.1 µM [inhibitor, single point]"},
      {"smiles": "C#CCSc1nnc(-c2ccc(OC)cc2)o1", "activity change, negative = inhibition": "inactive: -0.0028%"},
      {"smiles": "COc1c(N2CCN(C(=S)NC3CC4CCC3C4)C(C)C2)c(F)cc2c(=O)c(C(=O)O)cn(C3CC3)c12", "note": "(stereo not drawn)", "Potency": "inconclusive: 56.2 µM [inhibitor, partial curve]"},
      {"smiles": "COCCCn1c(SCc2nnc(-c3ccccc3)o2)nc2sc3c(c2c1=O)CCC3", "Potency": "inconclusive: 89.1 µM [inhibitor, single point]"},
      {"smiles": "COc1ccc2c(c1)OC[C@H]1[C@H]2N2C(=O)CN(CCc3c[nH]c4ccccc34)C(=O)[C@@]2(C)[C@H]1c1ccccc1", "activity change, negative = inhibition": "inactive: -27.3%"},
      {"smiles": "COCCOC(=O)C1=C(C)Nc2nc(C)nn2C1c1ccc(F)cc1", "note": "(stereo not drawn)", "Potency": "inconclusive: 79.4 µM [inhibitor, partial curve]"},
      {"smiles": "C/C(=N\\NC(=O)c1c(C)nc2ccccn12)c1ccc(O)cc1O", "Potency": "active: 1.78 µM"},
      {"smiles": "COc1ccc(-n2c(O)c(/C=N/NS(=O)(=O)c3cccc([N+](=O)[O-])c3)c3ccccc3c2=O)cc1OC", "Potency": "active: 50.1 µM"},
      {"smiles": "O=C(NC(Cc1c[nH]c2ccccc12)C(=O)O)c1ccco1", "note": "(stereo not drawn)", "Potency": "inconclusive: 89.1 µM [inhibitor, single point]"},
      {"smiles": "O=C(Nc1ccc2c(c1)OCCO2)c1ccc(Br)o1", "Potency": "inconclusive: 89.1 µM [inhibitor, single point]"},
      {"smiles": "COC(=O)c1cc2oc(C)cc2n1CC(=O)Nc1ccc(OC)c(OC)c1", "Potency": "inconclusive: 70.8 µM [inhibitor, single point]"},
      {"smiles": "COc1ccc(Nc2nc(-c3cccs3)cs2)cc1", "Potency": "inconclusive: 79.4 µM [inhibitor, single point]"},
      {"smiles": "FC(F)(F)c1ccnc(N2CCN(Cc3cnc(-c4ccccc4)[nH]3)CC2)c1", "Potency": "inconclusive: 39.8 µM [inhibitor, partial curve]"},
      {"smiles": "COc1ccc(S(=O)(=O)N(CCCN2CCOCC2)Cc2cccc3ccccc23)cc1", "Potency": "inconclusive: 79.4 µM [inhibitor, single point]"},
      {"smiles": "Cc1ccc(-c2csc(=S)[nH]2)cc1", "Potency": "inconclusive: 28.2 µM [inhibitor, partial curve]"},
      {"smiles": "O=c1cc(CO)oc(C(Nc2ccccn2)c2ccccc2Cl)c1O", "note": "(stereo not drawn)", "Potency": "inconclusive: 63.1 µM [inhibitor, partial curve, poor fit]"},
      {"smiles": "O=C(O)CCn1cc(/C=C/C(=O)c2ccc(Cl)cc2)c(-c2cccc(Br)c2)n1", "Potency": "inconclusive: 79.4 µM [inhibitor, partial curve]"},
      {"smiles": "Cc1ccc(NC(=O)CN2C(=O)S/C(=C\\c3cc(C)n(C)c3C)C2=O)cc1", "activity change, negative = inhibition": "inactive: 1.64% [at 57.1 µM]"},
      {"smiles": "CC(C)c1ccc(N(CC(=O)NCCSCc2ccco2)S(C)(=O)=O)cc1", "Potency": "inconclusive: 79.4 µM [inhibitor, single point]"},
      {"smiles": "Cc1[nH]c(-c2ccc(F)cc2)cc1C(=O)N1CCN(c2ccccc2F)CC1", "Potency": "inconclusive: 50.1 µM [inhibitor, partial curve]"},
      {"smiles": "Cn1c(CCN2CCCC2)nc2cc(NS(=O)(=O)c3ccc(Cl)cc3)ccc21", "Potency": "inconclusive: 15.8 µM [inhibitor, full curve]"},
      {"smiles": "COc1ccc(CCN2C(=O)c3[nH]nc(-c4ccccc4O)c3C2c2ccc(C)cc2)cc1OC", "note": "(stereo not drawn)", "Potency": "inconclusive: 39.8 µM [inhibitor, single point]"},
      {"smiles": "CCCOc1ccc(N2CC(C(=O)NCCc3ccc(OC)c(OC)c3)CC2=O)cc1", "note": "(stereo not drawn)", "activity change, negative = inhibition": "inactive: 3.46%"},
      {"smiles": "N#Cc1c2c(c(-c3ccco3)[nH]c1=O)CCCC2", "activity change, negative = inhibition": "inactive: 9.61%"},
      {"smiles": "Cc1nc(N/C(N)=N/S(=O)(=O)c2ccc([N+](=O)[O-])cc2)nc2ccccc12", "activity change, negative = inhibition": "inactive: 4.6%"},
      {"smiles": "O=C(C1CC1)n1cc(C(=S)N2CCOCC2)c2ccccc21", "Potency": "inconclusive: 89.1 µM [inhibitor, single point]"},
      {"smiles": "Cc1ccc2nsnc2c1S(=O)(=O)N1CCN(Cc2ccc3c(c2)OCO3)CC1", "Potency": "inconclusive: 44.7 µM [inhibitor, partial curve]"},
      {"smiles": "COc1ccc(OC)c(NC(=O)CSc2nccn2-c2cc(C)cc(C)c2)c1", "Potency": "active: 12.6 µM"},
      {"smiles": "Cc1ccc(-n2c(C)cc(C(=O)COC(=O)C3=NNC(=O)CC3)c2C)cc1", "Potency": "inconclusive: 50.1 µM [inhibitor, partial curve]"},
      {"smiles": "N#C/C(=C\\c1ccccc1[N+](=O)[O-])c1nc(C2CC2)cs1", "Potency": "active: 28.2 µM"}
    ]}
  ]
}
